Measurements: the supplement of paper PMC4166925
± gives the standard deviation of the averaged measurements. Over roughly 33,000 sequences, “E-score (dimensionless, -0.5 to 0.5)” has its median near -0.046; the highest 2% begin near 0.36. The list shows a part of the results.

The sequences below were run on T1, SpTbr T-box DNA-binding domain (GST fusion) (assay: PBM E-score of 8-mer (E-score (dimensionless, -0.5 to 0.5)); Tbr is Tbrain of the sea star Patiria miniata (Pm) or the sea urchin Strongylocentrotus purpuratus (Sp); higher = stronger binding preference; most listed sequences are background and not binding sites). Conditions: the construct has about 5 more residues each side.
T1 sequence: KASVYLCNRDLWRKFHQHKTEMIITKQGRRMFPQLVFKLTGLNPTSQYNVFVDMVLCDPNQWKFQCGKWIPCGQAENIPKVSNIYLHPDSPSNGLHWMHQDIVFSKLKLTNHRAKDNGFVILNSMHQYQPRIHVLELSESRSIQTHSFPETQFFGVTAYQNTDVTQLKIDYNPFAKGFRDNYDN
Outline: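 Expression of GST-fused Tbr T-box DNA-binding domains, each holding the full T-box plus roughly five flanking residues, was carried out in BL21 E. coli at 20 °C, with purification by glutathione affinity chromatography. Universal Agilent arrays made double-stranded by primer extension were incubated with the protein at 200 nM in PBS (pH 7.5), then scanned and quantified. All ungapped 8-mers were scored from probe intensities, and each received an enrichment E-score from the Universal PBM Analysis Suite, averaged over duplicate arrays.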

Sequence | PBM E-score of 8-mer
CATTGAAG | -0.0634 ± 0.056
TTAGCGAA | 0.11 ± 0.033
CGGCTCGC | 0.129 ± 0.011
CAGCAAAC | -0.00944 ± 0.054
CCCTACTA | -0.16 ± 0.12
GATATGTA | -0.158 ± 0.032
CCGACCAC | 0.0135 ± 0.026
CTGAATTA | -0.0446 ± 0.041
CTGCTAGC | 0.165 ± 0.045
AAATTACT | 0.0627 ± 0.11
AGCGCAAT | 0.165 ± 0.032
ACTAGGAC | -0.157 ± 0.037
AACTCTGA | -0.0644 ± 8.5e-05
AGATCTTG | 0.0314 ± 0.002
AACCAGAA | -0.0398 ± 0.053
GAAAGTGA | 0.293 ± 0.039
CTGCACTA | -0.143 ± 0.036
AGGCATAA | -0.0385 ± 0.0084
CAATATAG | 0.123 ± 0.0026
CAGAAAGC | -0.145 ± 0.0036
AAGTCCGT | -0.226 ± 0.082
GGTTTAAA | 0.00385 ± 0.043
ACGTCGAA | -0.282 ± 0.012
GTGCACAA | 0.0631 ± 0.03
ATTGTCTG | -0.14 ± 0.011

Sequence | PBM E-score of 8-mer
ATGGTCGG | -0.283 ± 0.032
AGTACCGC | -0.0243 ± 0.026
TAATTGTA | -0.195 ± 0.023
AGAACCTC | -0.254 ± 0.048
CTGGGGAA | 0.00742 ± 0.052
ATCATCAC | 0.326 ± 0.017
CCGTAGCG | -0.206 ± 0.048
ACACCGTA | 0.154 ± 0.0081
ACTTCGCA | 0.326 ± 0.026
CCTCATCC | 0.0715 ± 0.023
CAGGTAGC | -0.11 ± 0.032
TCAAGTGA | 0.1329 ± 0.00054
CTACGGGC | -0.121 ± 0.051
TCTCAGAA | -0.187 ± 0.048
CAATGCGC | 0.0773 ± 0.04
TGGGAAAA | 0.0488 ± 0.15
AAGCATTA | -0.142 ± 0.013
AATATTGA | -0.146 ± 0.043
CCCTACCC | -0.198 ± 0.082
GACGTGCA | 0.0705 ± 0.07
AGATGACT | -0.237 ± 0.019
AGGCCTCG | -0.0653 ± 0.048
AATATTCG | 0.045 ± 0.067
GCAAACGC | 0.0423 ± 0.015
GACGTATC | -0.23 ± 0.0087

Sequence | PBM E-score of 8-mer
CAATCTCG | 0.062 ± 0.045
AAGGACGA | -0.228 ± 0.029
ATGCTCCA | -0.113 ± 0.012
GAATTCGC | 0.225 ± 0.025
AAAAGAGG | -0.0911 ± 0.049
CGACGCCG | 0.223 ± 0.069
GCTTTGAC | -0.0492 ± 0.03
ACCGGGCC | -0.316 ± 0.077
ACCGACAC | 0.373 ± 0.0082
AGGTATAC | -0.181 ± 0.019
TAGTAGGA | -0.239 ± 0.027
ACTAACAA | 0.152 ± 0.039
TCCAACAA | -0.0144 ± 0.034
CTCCATTA | -0.24 ± 0.052
AGGCAGCA | -0.289 ± 0.0042
AAGGTGAT | 0.384 ± 0.023
CGTGCCAG | 0.074 ± 0.014
AATATAAT | -0.041 ± 0.066
CCGACGAC | 0.0212 ± 0.0075
ACCACAAA | 0.0425 ± 0.086
CCTTAGAC | -0.0786 ± 0.058
ATCGTCCC | -0.0441 ± 0.051
AACCTCGC | 0.152 ± 0.055
CCCTCCAG | -0.155 ± 0.045
GACCGAGA | -0.0281 ± 0.065

Sequence | PBM E-score of 8-mer
AAGCGTCG | 0.1316 ± 0.00061
GTTGCCGA | -0.0561 ± 0.0099
CCTACGCA | -0.1428 ± 0.0014
CGTCTTCC | -0.0481 ± 0.023
GCCATCAA | -0.0438 ± 0.039
TAACTTGA | -0.136 ± 0.026
AGCCTACT | 0.0364 ± 0.071
AGTCGCTC | -0.0374 ± 0.084
CAGCATTC | -0.0687 ± 0.068
ATCTGAAC | -0.0859 ± 0.069
ACTTCTGG | 0.0934 ± 0.0018
CGATGCTA | -0.161 ± 0.096
CATGACAC | 0.3587 ± 0.0021
CCAACATA | 0.0222 ± 0.06
CAAGTCTG | 0.0682 ± 0.034
CCCTAAGC | -0.117 ± 0.039
CGTGCGCA | 0.155 ± 0.0026
CAGGGTGA | 0.165 ± 0.08
CGTCTACA | 0.0944 ± 0.046
AACGGATG | -0.0443 ± 0.056
GTTCGGTA | 0.0494 ± 0.029
TGGCCGAA | -0.0438 ± 0.0043
CTCTCATA | -0.181 ± 0.059
GTTACATA | -0.171 ± 0.031
ACTTTGTG | 0.136 ± 0.035

Sequence | PBM E-score of 8-mer
ACCAAATA | -0.238 ± 0.024
CGCCACGA | 0.123 ± 0.035
GCCTGCAC | -0.0663 ± 0.051
ACGCGGGA | -0.0291 ± 0.00045
AGGGGATG | -0.135 ± 0.0024
AAGTAGGC | -0.00358 ± 0.02
AGATGCCG | -0.254 ± 0.013
ACGATGGA | -0.0806 ± 0.066
CGGAACCA | -0.0889 ± 0.05
CGGCCCAA | -0.183 ± 0.0043
ATTGATGA | -0.186 ± 0.0038
GACTAGCC | -0.138 ± 0.088
ACCGCGAG | 0.175 ± 0.062
TTAGTAAA | -0.0914 ± 0.011
CCCATGCA | 0.105 ± 0.005
TCTATAAA | -0.098 ± 0.081
CATCTTAC | -0.252 ± 0.059
ACAACTAT | 0.161 ± 0.039
AGCATAGG | -0.286 ± 0.0046
CGGATATC | -0.0915 ± 0.077
ATAGTCGA | -0.155 ± 0.026
ACACTAGA | 0.197 ± 0.025
AGGGCTTC | -0.088195 ± 2.1e-05
ATCAAGAT | -0.102 ± 0.0084
GGCCGATA | -0.0792 ± 0.048

Sequence | PBM E-score of 8-mer
ACCTATCG | 0.142 ± 0.07
TTCACGAA | 0.144 ± 0.088
ATGGCTTA | -0.119 ± 0.019
TACTTTAA | 0.0154 ± 0.047
ACAAGGGG | -0.125 ± 0.035
CAGGCCCC | -0.3182 ± 0.0026
CCAATATA | -0.167 ± 0.11
CATTCCGG | -0.196 ± 0.03
GCCATTAC | -0.135 ± 0.09
GCTATAGC | -0.151 ± 0.0042
AAGCTAGG | -0.197 ± 0.064
CCCCAGTC | -0.119 ± 0.018
CAGCAATA | -0.0531 ± 0.095
GCTTGTTA | 0.0822 ± 0.0027
GCCCTTTA | -0.275 ± 0.063
AATAAGCT | -0.0698 ± 0.032
ACCACCAT | 0.108 ± 0.082
GATTTAAA | -0.0862 ± 0.033
CGTCTTGC | -0.0802 ± 0.039
AGAATCCG | -0.035 ± 0.078
AATCTTCT | -0.185 ± 0.089
TCGGGAGA | -0.0812 ± 0.019
CTGTCTTA | -0.141 ± 0.05
AGACACGG | 0.0261 ± 0.016
CGACTAGC | 0.261 ± 0.0043

Sequence | PBM E-score of 8-mer
ATGCCCCA | -0.228 ± 0.02
CAAGGAGG | -0.154 ± 0.027
AGCCGAGA | 0.0289 ± 0.0091
GGCACCCC | 0.22 ± 0.003
CTGTGACA | 0.31 ± 0.011
ATAGACGC | 0.0267 ± 0.032
ATCAGGAA | -0.0873 ± 0.02
CCGCTGCA | 0.0158 ± 0.029
CTGCGAAG | 0.2479 ± 0.0022
AACAGAGC | 0.00334 ± 0.047
AACATCTG | -0.0309 ± 0.00087
CAACAACC | 0.0912 ± 0.017
CTAAGTTA | -0.13 ± 0.13
AAGATCAT | -0.117 ± 0.044
CCTCTGAC | -0.0787 ± 0.017
CGAGCCAC | 0.0407 ± 0.0043
TCCTCAGA | -0.0505 ± 0.044
CGCGCAAG | 0.205 ± 0.018
ACATTTTG | 0.0222 ± 0.062
CCGAATAA | -0.0137 ± 0.0092
CCACAAAG | -0.104 ± 0.047
ACCCACAT | 0.19 ± 0.023
